Measured values: the supplement of paper PMC10126150
Values marked as one replicate rest on one cluster of the flow cell; about a third of the high ones do not repeat.

Tested on: ATP
Assay: switch fluorescence ratio, 500 uM ATP over buffer (Cy3 cluster intensity, sum of 5 cycles each) (fold (ratio)); higher = stronger signal-on switching upon ATP binding; sequences stand for … in TCGTCGGCAGCGTCAGATGTGTATAAGAGACAGTTTTTTTTTTTTTTTTTTTTTTTTT…TC
Details: aptamer strand: ATP DNA aptamer (quencher-CACCTGGGGGAGTATTGCGGAGGAAGG + anchor), 100 nM annealed; ATP concentration: 500 uM; one replicate
Summary of the method: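 Exposure to 500 uM ATP lasted 15 min at 22 °C before imaging, and a selection-buffer image was taken beforehand, for Cy3-labelled switching-strand clusters on a modified Illumina MiSeq flow-cell annealed to 100 nM quencher-labelled ATP aptamer. Five buffer/ATP cycles were run with NaOH stripping and re-annealing between them. The fluorescence ratio per cluster is summed target-cycle over summed buffer-cycle Cy3 intensity, averaged per switch-domain sequence. Clusters outside 100-1000 RFU were excluded.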

| Sequence | switch fluorescence ratio |
| --- | --- |
| GAAAAACGGT | 1.01 |
| AGAAGGGTA | 1.01 |
| TTAAGGCTCA | 1 |
| CCGTTAGACT | 1.83 |
| CTTGTTGGGG | 0.977 |
| GGAGGCTGTT | 1.03 |
| GGCTTTGCTG | 1.03 |
| GTAAGATCTA | 0.97 |
| ATGGTGGTAG | 1.03 |
| ACATAATCAA | 1.02 |
| TATGTAATGC | 1.25 |
| TAAACGAGCT | 1.02 |
| AGACATTTAT | 1 |
| ACAAGCAAGT | 1.15 |
| ATATTCAAGT | 1.01 |
| CGAGTCGGTG | 1.02 |
| TTTGAGGTT | 0.975 |
| CTGTTATCCA | 1.01 |
| TTGCGGGAAG | 1.04 |
| TCCGTTTTG | 1.08 |
| CCGTTTGTGG | 0.975 |
| AGATCAGTTC | 1.08 |
| TGTGTGGAAA | 1.06 |

| Sequence | switch fluorescence ratio |
| --- | --- |
| TTGAGAGGG | 1.02 |
| TCCGCTGTTT | 1.27 |
| TTGAGTCAGA | 1.01 |
| GAGGGGTGGC | 1.01 |
| GAATAATGGT | 0.99 |
| AAACTGTCAT | 0.991 |
| GCGTGGATGA | 1.03 |
| GCTGGCAGAA | 0.993 |
| GATGACCACA | 1.1 |
| GGTTGGGAGC | 0.992 |
| GTGTGATACT | 1.11 |
| CTTTAAACAT | 1.03 |
| TAAGTCCATA | 0.977 |
| TAGGACCACT | 1.05 |
| TGTGGGTATG | 0.973 |
| TAGCGACTTA | 1.01 |
| GATTTGCTTG | 1.02 |
| GTATTAAGGC | 1.03 |
| TGCAACCGTT | 0.972 |
| AAACTATCGG | 1.02 |
| TATCTCGTAA | 1.09 |
| GATGACGCGG | 1.22 |
| AATGAGGGAT | 1.01 |

| Sequence | switch fluorescence ratio |
| --- | --- |
| AATAGTAAAC | 1.05 |
| CTAGATGGC | 1.15 |
| TTAGTCGGGG | 0.986 |
| CTTGCGTCTG | 1.03 |
| TGCCATGGCT | 1.11 |
| AATTGTTCAC | 0.998 |
| CATAGTCAAT | 1.3 |
| ATTGATACAG | 0.988 |
| TCGCAGCGGG | 1.08 |
| GACTGCTAGA | 1.09 |
| GCAACGGCCA | 1.03 |
| TTAACGAAAA | 0.991 |
| GTGCAGCGAT | 1.6 |
| AACCAATATC | 1.77 |
| CACGACCCAT | 1.17 |
| GCGCGCCTGT | 1.01 |
| TTGAGACT | 1.01 |
| GAAGGATATG | 0.966 |
| AAGCACCTGA | 1.14 |
| TCGTAGCGCG | 1.03 |
| TTTGCCCTCC | 1.23 |
| ACTGCGTCAA | 2.42 |
| CGAGAGAATT | 1.1 |

| Sequence | switch fluorescence ratio |
| --- | --- |
| AGTGGAGCG | 1.01 |
| CGCCGTGTAA | 0.974 |
| GCATCGACGG | 1.04 |
| ACTATCGGTG | 1.06 |
| TTCGCCCGGC | 1.2 |
| CATATACTGG | 1.08 |
| TCTGAATGTT | 0.974 |
| GAAAAGAGAA | 0.957 |
| ACCGCAGTCT | 1.18 |
| GGCGGATTTT | 0.97 |
| TCCGTGCACT | 1.35 |
| AGCGTGTGGA | 0.897 |
| TAAGCATCCG | 1.02 |
| AGTGAAGTAT | 0.998 |
| ACAATTAAAC | 1.07 |
| GATTGACAAA | 1.06 |
| ATGTAGTCTG | 0.97 |
| GAGAAATTTA | 1.01 |
| ATCGATCTGT | 0.987 |
| TTCGTTGGCA | 1.06 |
| TAATCTTTGA | 0.988 |
| AGATTGGCGC | 0.984 |
| ATTCTATTGA | 0.974 |

| Sequence | switch fluorescence ratio |
| --- | --- |
| CATGAGTTAT | 0.992 |
| ATGGAATTGG | 0.939 |
| CGCAGGACCT | 1.44 |
| AAGACCAGAT | 0.961 |
| TGGCGTTAA | 1.08 |
| TATTAGGCTC | 0.992 |
| TGCAGCGGAG | 1.03 |
| CCCAGGAATG | 1.42 |
| ACGGGCGA | 0.977 |
| CATTGATTGA | 0.961 |
| CTCTTGCATC | 1.96 |
| GGGTCTGCGT | 0.975 |
| TTTGCCTCTT | 0.977 |
| CAACCCGGGT | 0.979 |
| TTGCCGCGAA | 1.35 |
| GGGCCTAGAT | 0.96 |
| CCAGTGAGGT | 0.974 |
| ATTATAGTTA | 0.984 |
| GCTAGGTGCG | 1.04 |
| TAATTCGAAG | 0.987 |
| GGTTCGGACT | 1.03 |
| ATGTCAGACG | 1.02 |
| TCGGTCAGAT | 1 |

| Sequence | switch fluorescence ratio |
| --- | --- |
| GGGAGCACCT | 1.04 |
| ACGGGTAACT | 0.992 |
| CTGACAACAC | 2.08 |
| CGACCCGCAC | 5.04 |
| ATCTGACGCA | 5.03 |
| CTTATATCGA | 0.972 |
| ACACCTTTAT | 1.02 |
| ATCAGCGCTG | 1.01 |
| AACGTAACTT | 1.12 |
| GAGTGTAACA | 0.966 |
| TTGCTCTT | 1.03 |
| AGGGACCTAT | 1.05 |
| CTAGAGAGTG | 0.981 |
| ACTAGTATCG | 0.994 |
| CGGGGGCAAC | 1.32 |
| GCTCTCGGAT | 1 |
| ACTTTTTCAG | 1 |
| AGCACCGGAG | 1.1 |
| ACACTAAAAT | 1.05 |
| TTATGACGC | 1.06 |
| TCGTTAACTC | 1.05 |
| CGGAAGGAAC | 0.995 |
| GAGAAGAGTT | 0.964 |

| Sequence | switch fluorescence ratio |
| --- | --- |
| CTCAGGCCAT | 1.09 |
| TAGTACTGAA | 1.02 |
| AAGAATTATG | 1.05 |
| GCACTTGATC | 0.964 |
| GTCTCCTCAC | 1.2 |
| ACAGGATTGA | 1.02 |
| TTAGTGATTG | 0.981 |
| GATGCCCAG | 0.971 |
| CGATCCTTCT | 1.06 |
| CCATTATTTG | 1.01 |
| ATCCGCCACA | 1.72 |
| GAAAAAATTG | 1.32 |
| GTGTACATCC | 1.01 |
| AGGAAATCCG | 0.996 |
| GTGTGTTCAA | 0.994 |
| CTGGTGAATT | 1.02 |
| CTCTACTCGC | 1.12 |
| ACAGGGGGC | 1.14 |
| TTGGAACCGG | 0.984 |
